# Measurements reported in the supplement of paper PMC4604168 (melanoma cell lines).
# The other results are listed elsewhere or left out. Repeats are few or missing, and single values can be far off.
# Assays:
# Assay in all cases: cell count relative to DMSO control; melanoma cells; higher = more viable cells
# Conditions in all cases: library dose: low library concentration; 72 h
# MZ2-MEL = tested on: MZ2-MEL
# MeWo = tested on: MeWo
# RPMI7951 = tested on: RPMI7951
# RVH-421 = tested on: RVH-421
# SkMel28 = tested on: SkMel28
# SkMel2 = tested on: SkMel2
# SkMel30 = tested on: SkMel30
# SkMel5 = tested on: SkMel5
# UACC257 = tested on: UACC257
# UACC62 = tested on: UACC62
# 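Also: cell number obtained by counting DAPI-stained nuclei in high-throughput microscope images with image analysis software, screen run in 1,536-well plates.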
SMILES,cell count (MZ2-MEL) [%],cell count (MeWo) [%],cell count (RPMI7951) [%],cell count (RVH-421) [%],cell count (SkMel28) [%],cell count (SkMel2) [%],cell count (SkMel30) [%],cell count (SkMel5) [%],cell count (UACC257) [%],cell count (UACC62) [%]
"Cc1cn(-c2cc(NC(=O)c3ccc(C)c(Nc4nccc(-c5cccnc5)n4)c3)cc(C(F)(F)F)c2)cn1 [nilotinib] + O=C1NC(=O)/C(=C/c2ccc(-c3ccc(F)cc3O)o2)S1 [AS252424] (first compound 0.2 µM, partner dose 1 µM)",97.7,91.2,83.6,111,106,85.9,89.1,112,105,109
"COc1ccc(C2=N[C@@H](c3ccc(Cl)cc3)[C@@H](c3ccc(Cl)cc3)N2C(=O)N2CCNC(=O)C2)c(OC(C)C)c1 [Nutlin-3] + CN(C)S(=O)(=O)c1ccc2c(c1)/C(=C/c1cc3c([nH]1)CCCC3)C(=O)N2 [SU6656] (first compound 0.1 µM, partner dose 0.4 µM)",109,92,122,100,94.5,113,105,89.8,85.2,83.9
"Cc1cc(Nc2cc(N3CCN(C)CC3)nc(/C=C/c3ccccc3)n2)n[nH]1 + CN(C)S(=O)(=O)c1ccc2c(c1)/C(=C/c1cc3c([nH]1)CCCC3)C(=O)N2 [SU6656] (first compound 0.04 µM, partner dose 0.4 µM)",101,87.6,106,94.3,83.4,107,92.4,107,113,97.2
"CC(C)C[C@H](NC(=O)[C@H](Cc1ccccc1)NC(=O)c1cnccn1)B(O)O [Bortezomib] + Cc1cc([N+](=O)[O-])ccc1NS(=O)(=O)c1cc(Cl)ccc1Cl [FH535] (first compound 0.001 µM, partner dose 1 µM)",70.7,86.7,75.3,9.13,68.8,85.6,76.1,67.8,89.3,67.9
"Cn1c(=O)n(-c2ccc(C(C)(C)C#N)cc2)c2c3cc(-c4cnc5ccccc5c4)ccc3ncc21 + O=C(Nc1cccc(Cl)c1)Nc1ncc(CCNc2ncnc3ccsc23)s1 [SNS314] (first compound 0.004 µM, partner dose 0.0008 µM)",96.9,81.6,97.8,89.1,81.3,76.6,86.4,127,97.2,88.8
"COc1ccc(C2=N[C@@H](c3ccc(Cl)cc3)[C@@H](c3ccc(Cl)cc3)N2C(=O)N2CCNC(=O)C2)c(OC(C)C)c1 [Nutlin-3] + O=C(O)c1ccc(-c2c[nH]c3ncc(-c4ccccc4)cc23)cc1C1CCCC1 [GSK650394] (first compound 0.1 µM, partner dose 0.16 µM)",92.4,88.9,99.2,83,89.3,86,111,82.7,80.2,80
"Cn1c(=O)n(-c2ccc(C(C)(C)C#N)cc2)c2c3cc(-c4cnc5ccccc5c4)ccc3ncc21 + O=C(Nc1ccccc1)c1cc([N+](=O)[O-])ccc1Cl [GW9662] (first compound 0.004 µM, partner dose 2 µM)",99.8,91.4,124,102,92,87.1,101,114,115,89.8
"Cc1cc(Nc2cc(N3CCN(C)CC3)nc(/C=C/c3ccccc3)n2)n[nH]1 + O=C(O)C(=O)Nc1sc2c(c1C(=O)O)CCNC2 [TCS401] (first compound 0.04 µM, partner dose 1.66667 µM)",100,87.7,112,107,92.7,98,96.1,80.7,83.2,90.5
"COc1ccc(C2=N[C@@H](c3ccc(Cl)cc3)[C@@H](c3ccc(Cl)cc3)N2C(=O)N2CCNC(=O)C2)c(OC(C)C)c1 [Nutlin-3] + NCC(=O)Nc1ccc(-n2nc(C(F)(F)F)cc2-c2ccc3c(ccc4ccccc43)c2)cc1 [OSU03012] (first compound 0.1 µM, partner dose 1 µM)",97.2,58.3,103,80.1,68.5,72.5,44.9,86.6,76.9,97.7
